Read counts are not given, so values of variants with three or more changes are uncertain.
B1: OR4K15 (parent)
chain: GUUAACGGUCAUAGGCCAUGGAAACUAGGAGCACCAUUUCGCUGCCAGUGAAGAAAUGAACAAAGAAAAUCUGGGCCAGGCAGGCAUCAAAAGAAAUAGUCUUGCGCUCAACCAGAAAGUCUGUAAUCAUUUUAAGGGUA

Variants of: B1
Assay: self-cleavage, relative activity (ratio to wild type); higher = more cleavage; in vitro, sequencing; the parent is a self-cleaving ribozyme

| Variant | self-cleavage |
| --- | --- |
| GUUAUCGGUCAUAGGCCACGGAAACUAGGAGCACCAUUUCGCUGCCAGUGAAGAAACGAACAAAGAAAAUCUGGGCCAGGCAGGCAUCAAAAGAAAUAGUCUUGCGCUCAACCAGAAAGUCUGUAAUCAUUCUAAGGGUA [A5U U19C U57C U132C] | 0.47 |
| GUUAACGGACAUAGGCCUUGGAAACUAGGAGCACCAUUUCGCUGCCAGUGAAGUAAUGAACAAAGAAAAUCGGGGCCAGGCAGGCAUCAAAAGAAAUAGUCUUGCGCUCAACCAGAAAGUCUGUAAUCAUUUUAAGGGUA [U9A A18U A54U U72G] | 0.28 |
| GUUAACGGUCAUAGGCCAUGGAAACUAGGAGCACCAUUCCGCUGCCAGUGAAGGAAUGAACAAAGAAAAUCUGGGCCAGGCAGGCAUCAAAAGAAAUAGUCUUGCGCCCAACCAGAAAGUCUGUAAUCAUUUUAAGGGUA [U39C A54G U108C] | 0.03 |
| GUUAACGGUCAUAGGCCAUGGAAACUAGGAGCACCAUUUCGCUGCCAGUGAAGAAAUGAACAAAGAAAAUCUGGGCCGGGCAGGCAUCAAAAGAAAUAGUCUUGCGCUCAACCAGAAAGUCUGUAAACGUUUUAAGGGUA [A78G U127A A129G] | 0.28 |
| GUUAACGGUCAUAGGACAUGGAUACUAGGAGCACCAUUUCGCAGCCAGUGAAGAAAUGAACAAAGAAAAUCUGGGCCAGGCAGGCAUCAAAAGAAAUAGUCUUGCGCUCAACCAGAAAGUCUGUAAUCAUUUUAAGGGUA [C16A A23U U43A] | 0.85 |
| GUUAACGGUCAUAGGCCAUGGAAACUAGGAGCACCAUUUCGCUGCCAGUGAAGAAAUGAACAAAGAAAAUCUGGGCCAGGCGGGCAUCAAAAGAGAUAGUCUUGCGCUCAACCAGAAAGUCUGUAAUCAUCUUAAGGGUA [A82G A95G U131C] | 0.66 |
| GUUAACGGUCAUAGGCCAUGGAAACCAGGAGCACCAUUUCGCUGCCAGUGAAGAAAAGAACAAAGAAAAUCUGGGCCAGGCAGGCAUCAAAAGAAAUAGUCUUGCGCUCAACCAGAAAGUCUGUAAUCGUUUUAAGGGUA [U26C U57A A129G] | 1.1 |
| GUUAACGGUCAUAGGCCAUGGAAACUAGGGGCACCAUUUCGCUGCCAGUGAAGAAAUGAACAAAGAAAAUCUGGGCCGGGCAGGCACCAAAAGAAAUAGUCUUGCGCUCAACCAGAAAGUCUGUAAUCAUUUUAAGGGUA [A30G A78G U87C] | 0.33 |
| GUUAACGGUCAUAGGCCAUGGAAACUAGGAGCACCAUUUCGCUGCCAGUGUAGAAAUGAACAAAGAAAAUCUGGGCCAGGCAGGCAUCAAAAGGAAUAGUCUUGCGCUCAACCAGAAAGUCUGUAAACAUUUUAAGGGUA [A51U A94G U127A] | 1.66 |
| GUUAACGGUCAUAGGCCAUGGAAGCAAGGAGCUCCAUUUCGCUGCCAGUGAAGAAAUGAACAAAGAAUAUCUGGGCCAGGCAGGCAUCAAAAGAAAUAGUCUUGCGCUCAACCUGAAAGUCUGUAAUCAUUUUAAGGGUA [A24G U26A A33U A68U A114U] | 0.06 |
| GUUAACGGUCAUAGGCCAUGGAAACUAGGAGCUCCUUUUCGCUGCCAGUGAAGAGAUGAACAAAGAAAAUCUGGGCCAGGCAGGCAUCAAAAGAAAUAGUCUUGCGCUCAACCAGAAAGUCUGUAAUCAUCUUAAGGGUA [A33U A36U A55G U131C] | 2.3 |
| GUUAACGGUCAUAGGCCAUGGAAACUAGGAGCACCAUUUCGCUGCCAGUGAAGAAAUGAACAAAGAAAAUCUGGGCCAGGCAGGCAUCGAAAGAAAUAGUCUCGCGCUCAACCAGAAAGUCUGUAAUCAUUUUGAGGGUA [A89G U103C A134G] | 0.43 |
| GUUAACGGUCAUAGGCCAUGGAAACUAGGAGCACCAUUUCGCUGCCGGUGAAGGAAUGAACAAAGAAAAUCUGGGCCAGGCAGGCAUCAAAAGAAAUAGUCUUGCGCUCAACCAGAAAGUCUGUAGUCAUUUUAAGGGUA [A47G A54G A126G] | 0.21 |
| GUUAACGGUCAUAGGCCAUGGGAACUAGGAGCGCCAUUUCGCUGCCAGUGAAGAAAUGAACAAAGAAAAUCUGGGCCAGGCAGGCACCAAAAGAAGUAGUCUUGCGCUCAACCAGAGAGUCUGUAAUCAUUUUAAGGGUA [A22G A33G U87C A96G A117G] | 1.52 |
| GUUAACGGUCAUAGGCCAUGGAAGCUAGGAGCACCAUUUCGCUGCCAGUGAAGAAGUGAACAAAGAAAAUCUGGGCCAGGCAGGCAUCGAAAGAAAUAGUCUUGCGCUCAACCAGAAAGUCUGUAAUCAUUUUGAGGGUA [A24G A56G A89G A134G] | 1.93 |
| GUUAACGGUCAUAGGCCAUGGAGACUAGGAGCACCAUUUCGCCGCCAGUGAAGAAAUGAACAAAGAAAAUCUGGGCCAGGCAGGCAUCAAAAGAAAUAGUCCUGCGCUCAACCAGAAAGUCUGUAAUCAUCUUAAGGGUA [A23G U43C U102C U131C] | 2.01 |
| GUUAGCGGCCAUAGGCCAUGGGAACCAGGAGCACCGUUUCGCUGCCAGUGAAGAAAUGAACAAUGAAAAUCUGGGCCAGGCAGGCAUCAAAAGAAAUAGUCUAGCGCUCAACCAGAAAGUCUGUAAUCAUUUUAAGGGUA [A5G U9C A22G U26C A36G A64U U103A] | 0.56 |
| GUUAACGGUCAUUGGCCAUGGAAACUAGGAGCACCAUUCCGCUGCCAGUGAAGAAGUGAACAAAGAAAAUCUGGGCCAGGCAGGCAUCAAAAGAAAUAGUCUUGCGCUCAACCAGAGAGUCUGUAAUCAUUUUAAGGGUA [A13U U39C A56G A117G] | 0.23 |
| GUUAACGGUCAUAGGCCAUGGAAACUAGGAGCACCAUUUCGCUGCCAGUGAAGAAAUGAACAAAGAAAAUCUGGGCCGGGCAGGCAUCAAAAGAAAUAGUCUUGCGCUCAACCAGAGAGUCUGUAGUCAUUUUAAGGGUA [A78G A117G A126G] | 0.15 |
| GUUAACGGUCGUAGGCCAUGGAAACUAGGAGCACCAUUUCGCUGCCAGUGAUGAAAUGAACAAAGAAAAUCUGGGCCAGGCAGGCAUCGAAAGAAAUAGUCUUGCGCUCAACCAGAAAGUCUGUAAUCAUUUUAAGGGUA [A11G A52U A89G] | 1.22 |
